Source: the RNAGym collection of RNA variant scans (doi:10.7554/elife.90254)
Read counts are not given, so values of variants with three or more changes are uncertain.

B1: LINE1-mini (parent)
chain: GGCAGAGCUCAACACAGCGUGGCAAAGUGGCUGUGGCUAGACUGCC

Variants of: B1
Experiment: self-cleavage, relative activity (ratio to wild type); higher = more cleavage; in vitro, sequencing; the parent is a self-cleaving ribozyme
In the case of C8U C13G G21A, the self-cleavage is reported as 0.44.
For C8U A12C C42A C45A, the self-cleavage was 0.01.
C8U G27U C37A showed a self-cleavage of 0.
With C8U G19U G33A the self-cleavage was 0.04.
With C8U C10U U28G U34G the self-cleavage was 0.07.
C8U G33U C42U showed a self-cleavage of 0.21.
For C8U A14C G27C, the self-cleavage was 0.17.
In the case of C8U G36C G44U, the self-cleavage is reported as 0.06.
With C8U A16G G17U G29U the self-cleavage was 0.31.
For C8U A12C U43A C46G, the self-cleavage was 0.
With C8U U9A A12G U20G the self-cleavage was 0.05.
In the case of C8U A25U G29C U32C A39G A41G, the self-cleavage is reported as 0.02.
C8U G29C C42A showed a self-cleavage of 0.01.
C8U A16G G36U C45G showed a self-cleavage of 0.04.
C8U G19U U20A G35A gave a self-cleavage of 0.07.
In the case of C8U G29U U32G C37G, the self-cleavage is reported as 0.03.
Variant C8U G21C U34G has a self-cleavage of 0.13.
For C8U C13G C15G A39C, the self-cleavage was 0.07.
For C8U A16G G22C U34G, the self-cleavage was 0.06.
C8U C13A A26G A41C G44C showed a self-cleavage of 0.07.
For C8U G29U G35U, the self-cleavage was 0.09.
C8U C15A G17A C31U showed a self-cleavage of 1.27.
Variant C8U G36C C42U has a self-cleavage of 0.11.
C8U C18A G29U showed a self-cleavage of 0.27.
With C8U C37U A39G the self-cleavage was 0.01.
For C8U A14U C15U A16C A24C G30U, the self-cleavage was 0.24.
For C8U G19A G22U G27U G35C G40A, the self-cleavage was 0.11.
For C8U G21A C45U, the self-cleavage was 0.71.
Work on C8U G27U U38A G44A yielded a self-cleavage of 0.1.
C8U U9G A24U gave a self-cleavage of 0.12.
Variant C8U C10U G29A has a self-cleavage of 0.04.
C8U G40C U43A C45A gave a self-cleavage of 0.04.
With C8U U9C C10U G22A U28A the self-cleavage was 0.02.
C8U G19A U20C A25U G33U U38A gave a self-cleavage of 0.02.
In the case of C8U C18U A26G, the self-cleavage is reported as 0.15.
Variant C8U C10G G30A has a self-cleavage of 0.03.
With C8U U20A G35U A41G the self-cleavage was 0.13.
C8U G19U C45U showed a self-cleavage of 0.23.
For C8U G17C G22U A26C U38A, the self-cleavage was 0.08.
C8U C18G C42A gave a self-cleavage of 0.17.
Variant C8U C13A G17C U32G G33U U34A has a self-cleavage of 0.14.
C8U C10G A11U G27C U38A G44C C45A showed a self-cleavage of 0.
Variant C8U G30U G36U has a self-cleavage of 0.37.
For C8U C18G G35C, the self-cleavage was 0.1.
Work on C8U C18A G44A yielded a self-cleavage of 0.09.
With C8U G30A G36C the self-cleavage was 0.02.
Work on C8U A12C U38C yielded a self-cleavage of 0.17.
With C8U G17C A39U A41U the self-cleavage was 0.04.
Work on C8U G19U G27A G30U yielded a self-cleavage of 0.33.
C8U A25C C46A gave a self-cleavage of 0.18.
C8U C13G U38G gave a self-cleavage of 0.01.
Work on C8U C10G G19C U32G yielded a self-cleavage of 0.
Work on C8U C10U G19A U43G yielded a self-cleavage of 0.06.
C8U G17C C31G A41U gave a self-cleavage of 0.08.
In the case of C8U C37A C45A, the self-cleavage is reported as 0.2.
For C8U A14G U28C, the self-cleavage was 0.04.
Variant C8U G29A C46A has a self-cleavage of 0.12.
C8U G22A C23A G27C gave a self-cleavage of 0.02.
Variant C8U C10U A12C A26G has a self-cleavage of 0.03.
In the case of C8U C23A U34C, the self-cleavage is reported as 0.46.
Variant C8U A16G U28A has a self-cleavage of 0.02.
In the case of C8U U9C A11C, the self-cleavage is reported as 0.05.
C8U A12G U32A gave a self-cleavage of 0.17.
C8U G29U G40A gave a self-cleavage of 0.36.
Variant C8U C15A U38G has a self-cleavage of 0.14.
C8U C10G C15G showed a self-cleavage of 0.02.
Work on C8U C10A A14G yielded a self-cleavage of 0.02.
Variant C8U C13G C18G C31G G44C C46U has a self-cleavage of 0.04.
Variant C8U U9A A11U has a self-cleavage of 0.05.
Variant C8U A16C G27A C37U has a self-cleavage of 0.21.
Variant C8U C13G G19A A41C has a self-cleavage of 0.01.
With C8U C10A G27C G29U the self-cleavage was 0.03.
Work on C8U C13U C37A yielded a self-cleavage of 0.2.
C8U C10U U32C G36U gave a self-cleavage of 0.12.
In the case of C8U C15U C18G G19C G30U, the self-cleavage is reported as 0.25.
C8U C18G G36A U38C gave a self-cleavage of 0.06.
C8U G29C G30U C45U gave a self-cleavage of 0.34.
With C8U C10G G17U U38G the self-cleavage was 0.03.
C8U G17U C18U G40A gave a self-cleavage of 0.24.
C8U C10A A16C gave a self-cleavage of 0.05.
Work on C8U C10A U28C yielded a self-cleavage of 0.02.
For C8U A14G C37U, the self-cleavage was 0.44.
For C8U G19A G27A G40A A41C, the self-cleavage was 0.06.
For C8U G30U U38C, the self-cleavage was 0.55.
With C8U A25C C37U the self-cleavage was 0.12.
C8U C23A C31U gave a self-cleavage of 0.18.
Variant C8U G19A C31A G40U has a self-cleavage of 0.12.
Work on C8U G44C C45U yielded a self-cleavage of 0.07.
C8U A11G G22C G35A showed a self-cleavage of 0.04.
With C8U A12U A26G G30C A39C C46G the self-cleavage was 0.06.
C8U G27U G30A G44C showed a self-cleavage of 0.13.
For C8U C23U G27A U34A, the self-cleavage was 0.1.
C8U A14C G17C A26C C31U A41U U43G C46U showed a self-cleavage of 0.03.
With C8U C10U G22C G30U U43C the self-cleavage was 0.04.
C8U A25C U28A A39G U43A C45G gave a self-cleavage of 0.
With C8U A12G C13G the self-cleavage was 0.02.
C8U C42U C45A gave a self-cleavage of 0.15.
For C8U C13U G17A G19A G21U C46A, the self-cleavage was 0.1.
With C8U C15A G33A G36U U38C C46U the self-cleavage was 0.13.
With C8U G17A G19A G33C the self-cleavage was 0.07.
With C8U A14U U20A the self-cleavage was 0.25.
C8U U20C A25U U34G gave a self-cleavage of 0.24.
C8U A12U U43G showed a self-cleavage of 0.04.
C8U C10A A11U G19U G40U showed a self-cleavage of 0.
With C8U G27U C42G the self-cleavage was 0.07.
C8U C13G U32C gave a self-cleavage of 0.06.
Work on C8U C13U A39C G40C yielded a self-cleavage of 0.2.
Work on C8U G17U C23G A24G yielded a self-cleavage of 0.04.
In the case of C8U A12G G21U U32A, the self-cleavage is reported as 0.02.
Work on C8U C13G G22A G35U yielded a self-cleavage of 0.28.
Variant C8U C10A C13A has a self-cleavage of 0.03.
For C8U C13G G27A C31A, the self-cleavage was 0.07.
C8U U9G C42U showed a self-cleavage of 0.15.
For C8U G22A A24U A41U, the self-cleavage was 0.24.
Variant C8U C13A G29U U38A C46U has a self-cleavage of 0.14.
With C8U C10G C23G U34G G35A the self-cleavage was 0.02.
Variant C8U A24G A26C has a self-cleavage of 0.38.
For C8U G19C G27C G36U, the self-cleavage was 0.07.
With C8U A12C A14U the self-cleavage was 0.03.
For C8U C18G G22C U43A, the self-cleavage was 0.03.
Work on C8U A26G G33C yielded a self-cleavage of 0.03.
For C8U G21U G29U G44C, the self-cleavage was 0.05.
C8U A16U U28A U38C gave a self-cleavage of 0.15.
In the case of C8U G21A C23A G29A C46G, the self-cleavage is reported as 0.22.
C8U G22C G29C showed a self-cleavage of 0.1.
C8U A12G A16U C46A gave a self-cleavage of 0.18.
Variant C8U A26U G29A C37G A41U has a self-cleavage of 0.03.
Work on C8U G33C G35U yielded a self-cleavage of 0.1.
C8U G22U C23A gave a self-cleavage of 0.26.
C8U A16G G30C G40C C46U gave a self-cleavage of 0.16.
C8U A24G U28C gave a self-cleavage of 0.14.
Variant C8U C15A A25C has a self-cleavage of 0.25.
C8U C10U A11G A16U U34A G35A showed a self-cleavage of 0.03.
Work on C8U C23A C37A yielded a self-cleavage of 0.1.
Variant C8U G17A G40U has a self-cleavage of 0.13.
Work on C8U G22U U34G U38C C42G yielded a self-cleavage of 0.85.
C8U G33C A41G gave a self-cleavage of 0.05.
Work on C8U C15A A16U C37A G40U G44U yielded a self-cleavage of 0.03.
With C8U A12C C37G the self-cleavage was 0.01.
C8U G40U A41G showed a self-cleavage of 0.47.
With C8U G19C U20A G21U A39C the self-cleavage was 0.02.
With C8U C15G A16U G21C U28A G35A G44U the self-cleavage was 0.02.
Variant C8U C18G U20G A39G has a self-cleavage of 0.04.
C8U C10A A24G C31A gave a self-cleavage of 0.01.
Work on C8U C10G C13A A25G yielded a self-cleavage of 0.02.
Variant C8U C13A G21U has a self-cleavage of 0.34.
In the case of C8U G30U U32C, the self-cleavage is reported as 0.18.
In the case of C8U A14C G22U G35A, the self-cleavage is reported as 0.12.
Work on C8U C18G U20C A24U G30U U38A A39G yielded a self-cleavage of 0.15.
Variant C8U A12G C13G C18U A26U has a self-cleavage of 0.14.
C8U C13U A16U G33C C46A showed a self-cleavage of 0.05.
Variant C8U A24G G27A A39U has a self-cleavage of 0.16.
Variant C8U C13A G35U G44C has a self-cleavage of 0.16.
C8U C15G G27C G44U gave a self-cleavage of 0.04.
Work on C8U A16G C18U G21A A24G G30C C46G yielded a self-cleavage of 0.01.
C8U A14U C18G showed a self-cleavage of 0.38.
C8U A16G U20C U38G G40C gave a self-cleavage of 0.
In the case of C8U G19U G21U, the self-cleavage is reported as 0.21.
With C8U A12G G30U G36A the self-cleavage was 0.03.
In the case of C8U C13U U43G C45A, the self-cleavage is reported as 1.05.
Work on C8U C10G C23A yielded a self-cleavage of 0.01.
In the case of C8U C18A A25C C31G, the self-cleavage is reported as 0.05.
C8U A16C A24U gave a self-cleavage of 0.03.
For C8U G21C C42A, the self-cleavage was 0.18.
With C8U U9C A16C U20A G36A the self-cleavage was 0.04.
Variant C8U C10U A25U C45U has a self-cleavage of 0.05.
In the case of C8U U9G G27C, the self-cleavage is reported as 0.03.
